Laboratory results as given in PMC4336329 (PLoS ONE, 2015).
Out of some 310,000 compounds screened, about 2,200 (0.71%) showed an effect of 50% or more. Effects have a minus sign here. This is one part of the list.

Biological target: human ether-à-go-go-related gene (hERG) potassium channel (human, UniProt Q12809)
Test: primary screen, population patch clamp on CHO cells stably expressing hERG

Sequence of human ether-à-go-go-related gene (hERG) potassium channel (Q12809 whole entry, looked up): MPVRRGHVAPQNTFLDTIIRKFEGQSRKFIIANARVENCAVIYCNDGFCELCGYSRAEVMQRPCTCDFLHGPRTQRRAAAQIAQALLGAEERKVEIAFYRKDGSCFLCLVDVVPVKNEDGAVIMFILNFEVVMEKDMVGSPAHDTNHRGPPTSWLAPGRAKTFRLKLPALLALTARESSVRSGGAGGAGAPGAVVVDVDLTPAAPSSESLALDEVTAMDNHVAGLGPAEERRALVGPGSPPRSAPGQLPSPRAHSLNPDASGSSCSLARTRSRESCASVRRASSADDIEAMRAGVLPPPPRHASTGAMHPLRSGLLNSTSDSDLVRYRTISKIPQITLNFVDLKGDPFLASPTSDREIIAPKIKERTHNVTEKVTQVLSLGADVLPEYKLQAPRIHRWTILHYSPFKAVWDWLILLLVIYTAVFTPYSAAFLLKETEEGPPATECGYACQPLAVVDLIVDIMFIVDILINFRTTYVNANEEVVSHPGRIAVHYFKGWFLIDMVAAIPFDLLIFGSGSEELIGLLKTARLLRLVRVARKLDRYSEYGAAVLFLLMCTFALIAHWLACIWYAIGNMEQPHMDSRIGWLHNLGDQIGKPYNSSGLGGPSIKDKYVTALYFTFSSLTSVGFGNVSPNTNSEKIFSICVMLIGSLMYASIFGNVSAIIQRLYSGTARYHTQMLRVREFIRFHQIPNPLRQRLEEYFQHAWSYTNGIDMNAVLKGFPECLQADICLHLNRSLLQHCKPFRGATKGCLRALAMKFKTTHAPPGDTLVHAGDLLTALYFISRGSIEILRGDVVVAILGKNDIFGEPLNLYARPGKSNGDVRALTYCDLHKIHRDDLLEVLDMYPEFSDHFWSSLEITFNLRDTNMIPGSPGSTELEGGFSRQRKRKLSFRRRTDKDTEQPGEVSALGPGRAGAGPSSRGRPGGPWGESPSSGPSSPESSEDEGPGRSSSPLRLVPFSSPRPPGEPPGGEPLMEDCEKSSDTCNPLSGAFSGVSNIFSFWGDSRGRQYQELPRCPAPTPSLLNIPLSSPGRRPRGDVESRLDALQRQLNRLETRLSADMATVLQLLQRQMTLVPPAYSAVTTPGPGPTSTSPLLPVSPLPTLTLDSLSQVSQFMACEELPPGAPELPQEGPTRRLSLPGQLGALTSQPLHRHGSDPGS

SMILES	hERG current change (%, negative = inhibition) at 1uM [%]
CCOc1ccc(Nc2nc(N)nc(CCl)n2)cc1	7.02
O=c1[nH]c(Sc2ccc([N+](=O)[O-])cc2[N+](=O)[O-])nc2ccccc12	10.7
CS(=O)(=O)Nc1ccccc1C(=O)O	-16.3
O=C(Nc1nc2ccc(Cl)cc2s1)[C@@H]1CCCN1C(=O)c1cccs1	7.76
Cc1ccc(CNC(=O)c2ccc(Cn3nc(C)c(Cl)c3C)o2)cc1	5.48
S=C(NCCN1CCCCC1)Nc1ccccc1	13.5
CCOc1cc(C(=O)N[C@@H](C)C(=O)N2CCC3(CC2)NCCc2[nH]cnc23)cc(OCC)c1OCC	18
CC(C)C[C@@H]1NC(=O)[C@H](C(C)C)NC(=O)c2cc([N+](=O)[O-])cc(I)c2OCC[C@@H](C(N)=O)NC1=O	14.2
Cc1ccc(N2CC(C(=O)NC3CC3)CC2=O)cc1 (centres unmarked)	17.4
C/C(CCc1oc2ccc(Cl)cc2c1-c1ccc(C)o1)=N\O	26
Cc1ccc[n+](Cc2ccc([N+](=O)[O-])cc2)c1.[Br-]	16.4
O=C(NCc1cccc(F)c1F)C1CCC(=O)N(C2CCCCCC2)C1 (centres unmarked)	3
Clc1ccccc1CN1CCSCC1	17.8
C=CCc1cc(S(=O)(=O)c2ccc(O)c(CC=C)c2)ccc1O	12
COc1ccc(OC)c(C(O)c2coc3ccc(O)c(CN(C)C)c23)c1 (centres unmarked)	0.349
CCC(=O)Nc1nnc(SCCOC)s1	3.05
CCN(CC)c1ccc(N=Cc2ccccc2[N+](=O)[O-])cc1	6.57
C/C(CC(=O)NC1C2CC3CC(C2)CC1C3)=N\NC(=O)Cc1cccs1 (centres unmarked)	9.21
CC(=O)c1ccc(NC(=O)c2cc(C)no2)cc1	5.22
CCc1nnc(NC(=O)Cc2ccc(OC)c(OC)c2)s1	16.2
Cn1c(COc2ccccc2Br)nc2ccccc21	14.3
Cc1ccc(N2CCCn3c2cc(C)c(C#N)c3=O)cc1C	-0.767
CCNC(=S)NNC(=O)c1cc(Br)cs1	7.23

SMILES	hERG current change (%, negative = inhibition) at 1uM [%]
COC(=O)c1ccccc1NC(=S)N(Cc1ccc2c(c1)OCO2)Cc1cc2cccc(C)c2[nH]c1=O	9.7
CCOCCCNC(=S)NC1CC2CCC(C1)N2Cc1ccccc1 (centres unmarked)	2.8
Cc1nc(CCNC(=O)c2ccccc2)cs1	21.3
COc1ccc(N2C(=O)c3cccc4cccc(c34)C2=O)cc1	16.9
COc1ccc(-n2c(C)cc3cc(OC(C)=O)ccc32)cc1	13.6
O=C(/C=C/c1cccc(C(F)(F)F)c1)Nc1cccc(C(F)(F)F)c1	10.7
COC(=O)c1cccc(Nc2cc(C)nc(-c3ccccc3O)n2)c1	6.28
CCCCC(=O)N1C/C=C\C(c2ccc(OC)cc2)N(Cc2ccc(F)cc2)C(=O)[C@H]1Cc1ccccc1 (some centres unmarked)	10
N=C1/C(=C\c2coc3ccc(O)cc3c2=O)C(=O)N=C2SC=CN12	7.72
Cc1cccc(/C=N/NC(=O)c2cc(Br)ccc2O)n1	10.5
Cc1ccc([N+](=O)[O-])c2c1C(N1CCCC1)C(C)(C)O2 (centres unmarked)	7.76
CCC(C(=O)NCCCc1ccccc1)n1nc(C)c2c(C)n(-c3ccccc3)nc2c1=O (centres unmarked)	-9.75
Cc1ccc(NS(=O)(=O)c2cc(C(=O)N3CCOCC3)ccc2C)cc1C	1.51
COc1ccc(/C=C2/SC(c3ccc(C)cc3)=NC2=O)cc1OC	9.52
COc1ccc(S(=O)(=O)N2CCOCC2)cc1NC(=O)CO/N=C/c1ccccc1OC(F)F	4.29
COc1ccc(NC(=S)NCC(O)c2ccccc2)c(OC)c1 (centres unmarked)	4.22
Nn1c(SCC(=O)Nc2c(F)cc(F)cc2Br)nnc1C1CCCCC1	11.5
C=CCn1c(SCc2c(F)cccc2Cl)nnc1-c1ccco1	9.2
CC1CC(C)(C)NC(=S)N1CC(=O)N(C)Cc1ccccc1 (centres unmarked)	-3.93
Fc1ccc(-c2cc(C(F)(F)F)nc(-n3cccn3)n2)cc1	7.64
CC1CCCc2sc3ncn(N)c(=N)c3c21 (centres unmarked)	8.92
COc1ccccc1Nc1nn2c(=O)c3ccc(C(=O)N4CCCCC4)cc3nc2s1	11.3
COc1ccccc1C(=O)NC(=O)COC(=O)CCS(=O)(=O)c1ccc(C)cc1	7.42

SMILES	hERG current change (%, negative = inhibition) at 1uM [%]
COCCNC(=S)N1CCC(NC(=O)Nc2ccc(C)cc2)CC1	9.33
Cc1cccc(NC(=O)Nc2cccc(F)c2)n1	5.52
COc1cc(C(=O)NC(=S)Nc2ccc3c(c2)C(=O)N(C)C3=O)cc(OC)c1OC	10.2
O=C(CN1CCN(CC(=O)Nc2ccc(-c3ccccc3)cc2)CC1)Nc1ccc(F)cc1	-13.7
O=C(O)c1ccc(N/N=C/c2cccc(F)c2)cc1.O=S(=O)(O)O	11.6
COC(=O)Nc1ccc(S(=O)(=O)N2CCC(C(=O)N3CCCC(C)C3)CC2)cc1 (centres unmarked)	41.1
CCN(CC)c1ccc(/C=N/n2c(C)nc3ccccc3c2=O)cc1	5.43
Cc1cc(C)nc(N2CCC(C(=O)N3CCN(c4cc(Cl)ccc4C)CC3)CC2)n1	5.63
Cn1cnc2c1c(=O)n(Cc1c(Cl)cccc1Cl)c(=O)n2C	5.21
Cc1ccc(Nc2nnc(SCC(=O)Nc3cccc(S(=O)(=O)N4CCCCC4)c3)s2)cc1	12
Cc1ccc(N2C(=O)C(CC(=O)Nc3cccc(F)c3)N(C3CC3)C2=O)cc1 (centres unmarked)	2.9
O=C(N/N=C/c1ccccc1OC(F)F)c1cc(-c2ccncc2)nc2ccccc12	18.7
CCn1c(=S)[nH]c2cc(S(=O)(=O)N3CCCCC3)ccc21	10.9
CCOC(=O)C1CCCCN1S(=O)(=O)c1ccc2c(c1)CC(C)N2C(=O)C1CCC1 (centres unmarked)	9.36
Cc1ccc(NC(=O)CS(=O)CC(=O)N(c2ccccc2F)C(C)C(=O)NC2CCCC2)cc1 (centres unmarked)	9.32
CCn1c(-c2ccccc2)c(C(=O)O)c2ccccc21	10.2
Cc1cc(NC(=O)COC(=O)[C@@H](NS(=O)(=O)c2ccc(Br)cc2)C(C)C)no1	6.51
COc1cccc(C=Nc2ccc(C)c(F)c2)c1O	6.06
Cc1c(Cl)cccc1NC(=O)Cn1cc(C(F)(F)F)cc(Cl)c1=O	4.87
COCCCNC(=O)CCC(=O)NNc1nc2ccccc2c2nc(C)nn12	16.2
Cc1ccc(-n2c(O)c(C=NCCN3CCNCC3)c(=O)[nH]c2=S)cc1	13.3
Cc1ccc(-c2c(C(=O)N/N=C/c3ccoc3)nnn2-c2nonc2N)cc1	13
COCCNC(=O)CN(C(=O)CCC(=O)Nc1nccs1)c1ccccc1OC	13.2

SMILES	hERG current change (%, negative = inhibition) at 1uM [%]
CCOC(=O)c1cc(S(=O)(=O)Nc2cccc(OC)c2)cn1C	13.7
COc1cc(N=C2C(=O)N3c4c(cccc42)C(C)=CC3(C)C)cc(OC)c1	13
COc1ccc(N(CC(=O)NC2CC2)S(=O)(=O)c2ccccc2)cc1	16
COc1ccc([C@H]2[C@H](C(=O)OC(C)(C)C)N3N=Cc4ccccc4C3C23C(=O)c2ccccc2C3=O)cc1OC (some centres unmarked)	8.39
CCOC(=O)C1(CC2CCCCO2)CCN(Cc2ccc(OC)cc2F)CC1 (centres unmarked)	-19.8
COC(=O)CSc1nnc(-c2ccncc2)o1	-3
Cc1ccc(NS(=O)(=O)c2cc(C(=O)Nc3cccc([N+](=O)[O-])c3)ccc2C)cc1	9.92
Cn1nnnc1SCCNS(=O)(=O)c1ccccc1	6.09
CC12CCC(C(=O)Nc3ncc([N+](=O)[O-])s3)(OC1=O)C2(C)C (centres unmarked)	0.895
CCc1noc(C)c1C(=O)Nc1ccc(F)c(F)c1	2
COc1ccc(C(OC(=O)c2ccco2)C(=O)NCc2ccc(C)cc2)cc1 (centres unmarked)	17.5
O=C(CSc1ncnc2c1oc1ccccc12)OCc1ccccc1	10.5
CCOC(=O)c1cnc(-c2ccccc2)nc1N(C)C	-5.06
N#Cc1c(C(F)(F)F)cc(-c2ccco2)nc1SCc1ccccn1	17.1
CCN(CC)CCCNC(=O)c1cc(-c2cccc(Cl)c2)on1	-36.5
O=C(COC(=O)c1cccc(S(=O)(=O)N2CCc3ccccc32)c1)Nc1ncc(Cl)cc1Cl	4.59
O=S(=O)(NNC(=S)NCC1CCCO1)c1cc(Cl)ccc1Cl (centres unmarked)	10.8
O=C(CC(c1ccccc1)c1ccccc1)Nc1ccncc1	6.4
CCCOc1ccc(/C(O)=C2/C(=O)C(=O)N(CCN(C)C)C2c2ccco2)cc1 (centres unmarked)	3.23
CC(CC(=O)Nc1ccc2c(c1)OCCO2)c1ccccc1 (centres unmarked)	20.9
